According to PubChem BioAssay AID1347120 (National Center for Advancing Translational Sciences (NCATS), 2019):
Where “and” joins values, the source holds several entries; their conditions need not be identical. Equal entries are not always repeated. The whole screen tested about 390,000 compounds, of which about 930 (0.24%) were called active. The shares of active, inactive and inconclusive entries below differ from those in the screen. The call rests on the fitted dose curve; in most records, active means well fitted activation curve with a large enough effect; inconclusive means small, poorly fitted or top-dose-only effect; inactive means no such curve, though single readings can be large or run the other way. Potencies beside an inconclusive call are fits to weak or partial responses and may not hold up.

Experiment: qHTS for Suppressors of FUS Proteinopathy: Primary screen using FUS-linked yeast assay; further: nearly all actives have a fitted effect of over 55% in size;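 on growth rescue (activation): plate controls were DMSO vehicle for no effect and reference control for full effect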
Details: S. cerevisiae FUS-expressing, OD600, 24 h; Potency: growth rescue; growth rescue (activation): at 76.6 µM (top of the series)
Summary of the method: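 Cultures pregrown in 2.5% raffinose medium are shifted to minimal medium containing 2% galactose to express toxic FUS. Compounds are tested at several concentrations. After 24hr at 30C, growth is quantified at 600 nm absorbance.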
Potency means the concentration at half of the fitted maximal effect; tags describe the fitted curve by direction and shape.

Structure (SMILES) | Potency | growth rescue (activation)
CCOC(=O)[C@H]1[C@H]2COc3ccc(C)cc3[C@@H]2N2C(=O)CN(Cc3ccc(C)cc3)C(=O)[C@@]12C | inconclusive: 28.2 µM [activator, single point] | 
C[C@@H]1CCN(C2CC2)S(=O)(=O)c2ccc(N3CCC[C@@H]3C)cc2O1 |  | inactive: 14.3%
CC(C)c1ccc(NC(=O)c2ccc3c(c2)CCN3S(=O)(=O)c2ccccc2)cc1 | inconclusive: 22.4 µM [activator, partial curve, poor fit] | 
O=C(/C=C/[C@H]1O[C@@H](n2cnc3c(NC(=O)c4ccccc4)ncnc32)[C@H](O)[C@@H]1O)NCc1cccc2ccccc12 | inconclusive: 17.8 µM [activator, partial curve, poor fit] | 
O=C(Nc1cccnc1)c1ccc2nc(-c3ccccc3)c(-c3ccccc3)nc2c1 | inconclusive: 50.1 µM [activator, single point] | 
O=C(CSCc1cnn(-c2ccccc2)c1-n1cccc1)NCc1ccc(Cl)cc1 | inconclusive: 31.6 µM [activator, partial curve, poor fit] | 
COc1ccccc1N1CCN(C(=O)c2cn(CC(C)C)c(=O)c3c2c2ccccc2n3C)CC1 | inconclusive: 31.6 µM [activator, single point] | 
O=C1CS/C(=N\C(=O)N2c3ccccc3Sc3ccccc32)N1 | inconclusive: 35.5 µM [activator, single point] | 
CCOc1ccccc1NC(=S)N1C2CCC1CC(NC(=O)NC13CC4CC(CC(C4)C1)C3)C2 (stereo not given) | inconclusive: 11.2 µM [activator, partial curve, poor fit] | 
CCC(C)Sc1cccc(-c2nc3cc(C)ccn3c2NC2CCCCC2)c1 (stereo not given) | inconclusive: 22.4 µM [activator, single point] and inconclusive: 28.2 µM [activator, single point] | 
COc1cc(OC)cc(-c2cc3nc(C)c(CCC(=O)NCc4ccccc4)c(C)n3n2)c1 | inconclusive: 50.1 µM [activator, single point] | 
CC(C)C[C@@H]1Cc2[nH][nH]c(=O)c2[C@H](CCc2ccccc2)O1 | inconclusive: 14.1 µM [activator, partial curve, poor fit] | 
Cc1nc2ccn(Cc3ccccc3)c(=O)c2cc1C(=O)N1CCN(c2ccccc2F)CC1 | inconclusive: 28.2 µM [activator, partial curve, poor fit] | 
COc1ccccc1CN(C)CC(=O)Nc1cccc(S(=O)(=O)N2CCCCC2)c1 |  | inactive: 3.09%
COc1ccc(N2CCN(C(c3ccccc3)c3sc4nc(-c5ccco5)nn4c3O)CC2)cc1 (stereo not given) | inconclusive: 3.98 µM [activator, full curve] | 
